According to PubChem BioAssay AID504339 (National Center for Advancing Translational Sciences (NCATS), 2011):
The campaign covered roughly 390,000 compounds. About 17,000 (4.4%) were called active. The shares of active, inactive and inconclusive entries below differ from those in the screen. The call rests on the fitted dose curve; in most records, active means well fitted inhibition curve with a large enough effect; inconclusive means small, poorly fitted or top-dose-only effect; inactive means no such curve, though single readings can be large or run the other way. Potencies of inconclusive entries are doubtful fits and often do not repeat.

Target: Lysine-specific demethylase 4A (Homo sapiens) (UniProt O75164)
Experiment: qHTS Assay for Inhibitors of JMJD2A-Tudor Domain; further: nearly all actives have a fitted effect of over 50% in size
Details: AlphaScreen JMJD2A-Tudor / H3K4me3 peptide binding; activity change, negative = inhibition: at 114 µM (top of the series)
On the % scale 0 is the no-effect control and ±100 the full control effect; potency means the concentration at half of the fitted maximal effect; tags describe the fitted curve by direction and shape.

UniProt O75164, sequence (O75164 whole entry, looked up, the tested form may be a part): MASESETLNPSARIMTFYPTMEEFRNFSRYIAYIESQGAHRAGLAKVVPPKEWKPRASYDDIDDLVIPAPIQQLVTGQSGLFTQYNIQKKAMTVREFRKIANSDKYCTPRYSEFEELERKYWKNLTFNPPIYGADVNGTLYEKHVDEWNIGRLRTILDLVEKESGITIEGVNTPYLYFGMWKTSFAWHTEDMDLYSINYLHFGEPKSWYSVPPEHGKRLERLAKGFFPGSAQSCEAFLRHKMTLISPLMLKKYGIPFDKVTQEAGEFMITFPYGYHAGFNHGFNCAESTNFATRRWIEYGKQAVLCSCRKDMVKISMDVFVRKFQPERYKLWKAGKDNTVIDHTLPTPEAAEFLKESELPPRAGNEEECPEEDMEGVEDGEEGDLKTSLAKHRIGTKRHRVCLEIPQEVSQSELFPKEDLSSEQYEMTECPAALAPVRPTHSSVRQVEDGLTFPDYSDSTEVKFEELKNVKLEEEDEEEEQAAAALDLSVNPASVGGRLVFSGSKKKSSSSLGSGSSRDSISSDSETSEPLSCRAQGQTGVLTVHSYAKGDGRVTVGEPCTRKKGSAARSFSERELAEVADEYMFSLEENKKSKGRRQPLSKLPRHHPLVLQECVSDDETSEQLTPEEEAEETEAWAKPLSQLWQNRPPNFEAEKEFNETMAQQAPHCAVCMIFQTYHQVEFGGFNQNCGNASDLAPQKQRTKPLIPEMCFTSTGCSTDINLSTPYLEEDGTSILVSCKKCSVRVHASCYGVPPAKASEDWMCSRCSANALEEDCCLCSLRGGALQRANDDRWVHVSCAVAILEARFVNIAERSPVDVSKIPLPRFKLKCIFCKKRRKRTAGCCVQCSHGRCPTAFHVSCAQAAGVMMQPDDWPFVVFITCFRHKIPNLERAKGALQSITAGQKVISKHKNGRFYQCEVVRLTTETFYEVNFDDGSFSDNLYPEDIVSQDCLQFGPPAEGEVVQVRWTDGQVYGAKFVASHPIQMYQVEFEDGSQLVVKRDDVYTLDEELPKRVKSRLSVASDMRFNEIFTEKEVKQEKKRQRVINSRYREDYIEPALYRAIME

Activity change, negative = inhibition, inactive:
N#Cc1cc(Sc2ccccn2)c(Sc2ccccn2)cc1C#N -17.5%, C=CCNC(=S)/N=c1/ccccn1C 3.61%, Cc1ccc(-c2cc(C(=O)N3CCN(c4ncccn4)CC3)c3ccccc3n2)cc1 -12.9%, Cn1c(NCCCN2CCOCC2)nc2c1c(=O)n(Cc1ccc(Cl)cc1)c(=O)n2C -34%, COc1cc(CN2CCN(C3CCC3)CC2CCO)cc(OC)c1 (stereo not given) -2.76%

Potency, active:
COc1cc(/C=N/N2CCN(Cc3ccc(Cl)cc3)CC2)ccc1OC(C)=O 44.7 µM, COc1ccc(OC)c(CN2CCC(C(=O)N3CCN(c4ccccc4F)CC3)CC2)c1 1.41 µM, CCCCCCCCCCCCCCCCCCNc1ccn(C2OC(COP(=O)(O)OCC3OC(n4cc(F)c(=O)[nH]c4=O)CC3O)C(O)C2O)c(=O)n1 (stereo not given) 56.2 µM, COCCCNCC(=O)Nc1ccc(OC(F)(F)F)cc1 2.82 µM

Potency, inconclusive:
Cc1cccc(-n2c(O)c(C=Nc3ccccc3-c3n[nH]c(=S)[nH]c3=O)c3ccccc3c2=O)n1 56.2 µM [inhibitor, partial curve], COc1ccccc1N1CCN(C2=Nc3cccc4cccc2c34)CC1 39.8 µM [inhibitor, partial curve], S=C(c1ccccc1)N(c1ccccc1)c1ccccc1 39.8 µM [inhibitor, partial curve], COC(=O)CN(C)C1CC(=O)N(c2ccc(Cl)cc2)C1=O (stereo not given) 17.8 µM [inhibitor, full curve], COc1ccc(-c2nc(N/N=C(\C)c3ccc(O)cc3)c3ccccc3n2)cc1 15.8 µM [inhibitor, full curve, poor fit], Cc1ccc(-c2cc(-c3n[nH]c(=S)n3C)c3ccccc3n2)cc1 44.7 µM [inhibitor, partial curve], CN(C)/N=C/C=C1\CCC/C(=C/c2cccs2)C1=O 44.7 µM [inhibitor, partial curve], Cc1cccc2c(N=O)c(O)[nH]c12 3.16 µM [inhibitor, single point], Cc1ccc(C(=O)N/C(=C\c2ccccc2F)c2nc(=S)[nH][nH]2)cc1 44.7 µM [inhibitor, full curve, poor fit], COc1cccc(CN(C)C(=O)c2[nH]c(C)c(C(C)=O)c2C)c1OC 22.4 µM [inhibitor, single point], CC(C)CN(C(=O)COC(=O)c1cc2c(s1)CCC2)C1CCS(=O)(=O)C1 (stereo not given) 2.82 µM [inhibitor, full curve, poor fit]
